Test results: PubChem BioAssay AID894 (National Center for Advancing Translational Sciences (NCATS), 2007)
Where “and” joins values, the source holds several entries; their conditions need not be identical. Identical values can stand only once. In all, about 150,000 compounds went through this assay and about 6,500 (4.3%) were called active. The inconclusive results got no clear call from the source; some entries with a clear call stand among them for comparison. Calls follow the shape of the dose curve; as a rule, active = well fitted inhibition curve with a large enough effect (not every such curve was filed as active); inconclusive = small, poorly fitted or top-dose-only effect, or another doubt; inactive = no such curve, though single readings can be large or run the other way. A potency beside an inconclusive call is a rough fit, not a confirmed value.
% is scaled to controls: 0 for no effect and ±100 for the full control effect; potency is read from the fitted curve at half-maximal effect; tags tell the direction and shape of the fitted curve.

These compounds were tested against 15-hydroxyprostaglandin dehydrogenase [NAD(+)] (Homo sapiens) (UniProt P15428) (assay: qHTS Assay for Inhibitors of HPGD (15-Hydroxyprostaglandin Dehydrogenase)). Details: purified HPGD, NADH fluorescence kinetic, PGE2 substrate; activity change, negative = inhibition: hits give low values.
Sequence of UniProt P15428 (P15428 whole entry, looked up): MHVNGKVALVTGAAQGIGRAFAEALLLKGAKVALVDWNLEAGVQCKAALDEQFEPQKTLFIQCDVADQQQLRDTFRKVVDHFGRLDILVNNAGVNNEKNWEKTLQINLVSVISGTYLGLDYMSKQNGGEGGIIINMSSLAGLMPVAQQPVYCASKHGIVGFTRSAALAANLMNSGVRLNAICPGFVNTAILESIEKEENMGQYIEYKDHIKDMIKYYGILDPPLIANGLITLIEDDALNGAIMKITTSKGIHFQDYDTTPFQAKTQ
Summary of the method: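 20 nM HPGD preincubated 15 min at room temperature with compound in 50 mM Tris-HCl pH 8, 0.01% Tween 20. Started with 1 mM NAD+ and 30 uM prostaglandin E2; NADH fluorescence (360/450 nm) read 5 times over 30-s intervals, last minus first.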
With COc1c(-c2coc3cc4c(cc3c2=O)CC(O)C(C)(C)O4)ccc2c1C=CC(C)(C)O2 (stereo not drawn) the Potency was active: 15.8 µM.
N=C(N)c1ccc(N=Nc2c(O)ccc3c2[nH]c2ccccc23)cc1 was tested, and the activity change, negative = inhibition was inactive: -1.2%.
In the case of O=C(c1cnn2c(C(F)(F)F)cc(-c3ccc(Br)cc3)nc12)N1CCOCC1, the Potency is reported as inconclusive: 2.24 µM [inhibitor, full curve].
Cc1ccc(C(C(=O)NC2CCCC2)N2CCCCC2)cc1 (stereo not drawn) was tested, and the activity change, negative = inhibition was inactive: -7.62%.
With O=C(CSc1n[nH]c(-c2cccs2)n1)N1CCCc2ccccc21 the Potency was active: 6.31 µM.
With N=C1/C(=C\c2ccc(-c3cccc(Cl)c3)o2)C(=O)N=C2SC=C(c3ccccc3)N12 the Potency was active: 14.1 µM.
With COc1ccc(COc2cc(-c3cccc(OC)c3)nc3ccc(NC(=O)c4ccc(Cl)cc4)cc23)cc1 the Potency was inconclusive: 25.1 µM [inhibitor, partial curve] and inconclusive: 14.1 µM [inhibitor, partial curve].
For O=C(C1CC1)N1CCc2cc(S(=O)(=O)NCC3COc4ccccc4O3)ccc21 (stereo not drawn), the activity change, negative = inhibition was inactive: -20.8%.
Cc1cccc(Nc2ncnc3nc[nH]c23)c1 was tested, and the activity change, negative = inhibition was inactive: -13.4%.
In the case of Cc1ccc(-n2ccc(=O)c(-c3ccnc(SCc4cccc(Cl)c4)n3)n2)cc1, the Potency is reported as inconclusive: 35.5 µM [inhibitor, partial curve].
With CCCc1cc(Nc2c(C)n(C)n(-c3ccccc3)c2=O)n2c(nc3ccccc32)c1C#N the Potency was inconclusive: 20 µM [inhibitor, partial curve].
COc1ccc(CCN(Cc2cccs2)S(=O)(=O)c2ccc(-n3cnnn3)c(OC)c2)cc1OC was tested, and the Potency was inconclusive: 0.794 µM [inhibitor, partial curve, poor fit].
For CCOC(=O)c1[nH]c(COC(=O)C2CC(=O)N(Cc3ccccc3)C2)c(C(=O)OCC)c1C (stereo not drawn), the Potency was active: 28.2 µM.
CC1CCN(C(=O)CSc2nnc(-c3cccnc3)n2C2CCCCC2)CC1 was tested, and the Potency was active: 22.4 µM.
Cc1ccc(F)cc1NC(=O)c1ccc2c(c1)OCO2 was tested, and the Potency was active: 20 µM.
In the case of O=C(CCCSc1nc2ccccc2s1)NCc1ccco1, the Potency is reported as inconclusive: 20 µM [inhibitor, partial curve].
With c1coc(-c2nc3ccccc3nc2-c2ccco2)c1 the Potency was inconclusive: 31.6 µM [inhibitor, single point].
With O=C(O)COc1ccc(-c2nccc(-c3cccs3)n2)cc1 the Potency was inconclusive: 35.5 µM [inhibitor, single point].
For CC(Sc1nnc(NC2CCCCC2)s1)C(=O)Nc1ccc2c(c1)C(=O)c1ccccc1C2=O (stereo not drawn), the Potency was inconclusive: 39.8 µM [inhibitor, single point].
O=C(CCN1C(=O)c2ccccc2C1=O)NC(=S)Nc1ccccc1Cl was tested, and the activity change, negative = inhibition was inactive: -21.6%.
In the case of CC1(C)Nc2ccccc2C(=O)N1NS(=O)(=O)c1ccccc1, the Potency is reported as inconclusive: 31.6 µM [inhibitor, partial curve].
Cc1nc(C)c(C(=O)Nc2cccc(C)c2C)o1 was tested, and the Potency was inconclusive: 31.6 µM [inhibitor, single point].
In the case of COc1c(F)c(F)c(C(=O)Nc2ccc3oc(-c4ccncc4)nc3c2)c(F)c1F, the Potency is reported as inconclusive: 22.4 µM [inhibitor, partial curve, poor fit].
NNC(=O)c1ccc(Cn2cc(Br)cn2)cc1 was tested, and the activity change, negative = inhibition was inactive: -5.98%.
In the case of Cc1nn(-c2ccccc2)c(=S)n1-c1ccccc1, the activity change, negative = inhibition is reported as inactive: -5.01%.
COc1ccccc1C(=O)Nc1ccc(N2CCN(S(C)(=O)=O)CC2)cc1 was tested, and the Potency was inconclusive: 39.8 µM [inhibitor, partial curve].
In the case of O=c1c2cnn(-c3ccccc3)c2ncn1Cc1ccccc1, the Potency is reported as inconclusive: 15.8 µM [inhibitor, partial curve].
In the case of CCCC[C@@H]1C[C@H]1C(NC(=O)c1ccc(C(F)(F)F)cc1)c1ccc(C(=O)OC)cc1 (stereo partly drawn), the activity change, negative = inhibition is reported as inactive: -3.12%.
Cc1ccc2oc(-c3cccc(NC(=O)c4cc(-n5cnnc5)ccc4Cl)c3)nc2c1 was tested, and the Potency was inconclusive: 25.1 µM [inhibitor, partial curve].
CC1=NN(C(=O)c2csc(C(C)C)c2)C(O)(C(F)(F)F)C1 (stereo not drawn) was tested, and the activity change, negative = inhibition was inactive: -13.6%.
O=C(/C=C/c1ccc(O)c(O)c1)c1ccc(S(=O)(=O)N2CCCCCC2)cc1 was tested, and the Potency was inconclusive: 10 µM [inhibitor, partial curve].
With O=C(c1ccco1)N1CCN(C(=O)c2ccc(COc3ccc4c(c3)CCC4)o2)CC1 the Potency was active: 28.2 µM.
With Cc1cc(C)n2cc(CSc3nc4cc(Cl)ccc4o3)nc2n1 the Potency was inconclusive: 35.5 µM [inhibitor, partial curve].
With COC(=O)[C@@]1(Cc2ccc(F)cc2)[C@@H]2[C@@H](CC(=O)[C@H]2CC(=O)C(=O)N(C)C)CN1C(=O)c1ccccc1 the activity change, negative = inhibition was inactive: -7.26% and inactive: -1.96%.
CCC(C)NS(=O)(=O)c1ccc(S(=O)(=O)N(CCc2ccc(OC)c(OC)c2)Cc2cccs2)cc1 (stereo not drawn) was tested, and the activity change, negative = inhibition was inactive: -13.5%.
With CC1CCCC(NC(=O)COC(=O)c2ccccc2NC(=O)c2ccco2)C1C (stereo not drawn) the Potency was inconclusive: 28.2 µM [inhibitor, partial curve].
In the case of Cc1cc(C)cc(C(=N)c2ccccc2Cc2cccc3ccccc23)c1, the activity change, negative = inhibition is reported as inactive: -10.6%.
With CC(=O)COc1ccc2c(-c3ccccc3)cc(=O)oc2c1 the Potency was inconclusive: 17.8 µM [inhibitor, partial curve].
With CCn1c2ccccc2c2cc(NC(=O)COC(=O)Cc3cn4ccsc4n3)ccc21 the Potency was inconclusive: 14.1 µM [inhibitor, partial curve].
For O=C(Nc1nnc(SCc2ccccc2)s1)c1cc2c(s1)CCCC2, the Potency was inconclusive: 28.2 µM [inhibitor, partial curve].
With N#C/C(=C\c1cn(Cc2ccc(F)cc2)c2ccccc12)C(=O)NCc1ccco1 the Potency was inconclusive: 12.6 µM [inhibitor, partial curve].
With O=S(=O)(c1ccc(Br)cc1)N1CCN(c2ccc3nnc(-c4ccccc4)n3n2)CC1 the Potency was inconclusive: 28.2 µM [inhibitor, single point].
With O=C(C1CCCCC1)N(Cc1nc2sc3c(c2c(=O)[nH]1)CCCC3)Cc1cccs1 the Potency was inconclusive: 39.8 µM [inhibitor, single point].
